Source: a collection of fitness landscapes (doi:10.1126/science.1257360)
The list shows a part of the results.

B1: PhoQ; a variant is named by its letters at X, in order, P23837 (parent)
chain: MKKLLRLFFPLSLRVRFLLATAAVVLVLSLAYGMVALIGYSVSFDKTTFRLLRGESNLFYTLAKWENNKLHVELPENIDKQSPTMTLIYDENGQLLWAQRDVPWLMKMIQPDWLKSNGFHEIEADVNDTSLLLSGDHSIQQQLQEVREDDDDAEMTHSVAVNVYPATSRMPKLTIVVVDTIPVELKSSYMVWSWFIYVLSANLLLVIPLLWVAAWWSLRPIEALAKEVRELEEHNRELLNPATTRELTSLVRNLNRLLKSERERYDKYRTTLTDLTHSLKTPLXXLQXXLRSLRSEKMSVSDAEPVMLEQISRISQQIGYYLHRASMRGGTLLSRELHPVAPLLDNLTSALNKVYQRKGVNISLDISPEISFVGEQNDFVEVMGNVLDNACKYCLEFVEISARQTDEHLYIVVEDDGPGIPLSKREVIFDRGQRVDTLRPGQGVGLAVAREITEQYEGKIVAGESMLGGARMEVIFGRQHSAPKDE

Variants of: B1
Experiment: enrichment ratio after two sorts for PhoP signalling (ratio (wild type AVST 3.29)); higher = more functional
Conditions: with PhoP (E. coli)

Variant	enrichment ratio
HNLH	≤ 0.25
GPRV	≤ 0.25
LVHN	≤ 0.25
KYQV	≤ 0.25
GWFA	≤ 0.25
EEYW	≤ 0.25
NMVW	≤ 0.25
EVQP	≤ 0.25
NPSA	≤ 0.25
IEWK	≤ 0.25
RWTP	≤ 0.25
ADYT	≤ 0.25
DGAP	≤ 0.25
TWNT	≤ 0.25
QIDV	≤ 0.25
RKTP	≤ 0.25
TRAH	≤ 0.25
IADN	≤ 0.25
MNAC	27.7
TALN	18.9
QMSL	1.28
VPWA	≤ 0.25
KLNK	≤ 0.25
WSKN	≤ 0.25

Variant	enrichment ratio
ACLI	5.06
DSAA	≤ 0.25
WKIL	≤ 0.25
HLAE	≤ 0.25
RKID	≤ 0.25
CTIS	≤ 0.25
VWGL	≤ 0.25
RTKN	≤ 0.25
SEQM	2.2
RFSQ	≤ 0.25
SGRA	≤ 0.25
DLID	≤ 0.25
VYDM	≤ 0.25
AMDL	≤ 0.25
NTCF	≤ 0.25
SHKA	≤ 0.25
WDPW	≤ 0.25
WHVM	≤ 0.25
PGYF	≤ 0.25
GSVP	≤ 0.25
LHFA	≤ 0.25
LPGQ	≤ 0.25
RYPN	≤ 0.25
WHGC	≤ 0.25

Variant	enrichment ratio
RPDR	≤ 0.25
HDQD	≤ 0.25
LSSA	≤ 0.25
RMHY	≤ 0.25
DHSV	≤ 0.25
EPVC	≤ 0.25
GGIE	≤ 0.25
ITHW	0.345
RTMA	≤ 0.25
FPDA	≤ 0.25
QFDP	≤ 0.25
IIVR	≤ 0.25
ETMR	≤ 0.25
FCFK	≤ 0.25
RRFM	≤ 0.25
SSHA	≤ 0.25
GFEG	≤ 0.25
GEFK	≤ 0.25
FDNM	≤ 0.25
PCSP	≤ 0.25
YISY	0.665
MFKH	≤ 0.25
WEMP	≤ 0.25
FHHR	≤ 0.25

Variant	enrichment ratio
NTTD	≤ 0.25
KSTR	≤ 0.25
WRFI	≤ 0.25
NWIC	≤ 0.25
RDLK	≤ 0.25
YMLM	≤ 0.25
IDMR	≤ 0.25
AKPC	≤ 0.25
GEPY	≤ 0.25
FAHR	≤ 0.25
DTIY	≤ 0.25
ITPR	≤ 0.25
GMAG	0.536
IMPV	≤ 0.25
VCGV	≤ 0.25
TKKF	≤ 0.25
GFRD	≤ 0.25
YYGC	≤ 0.25
SKPT	≤ 0.25
HQKM	≤ 0.25
VDGY	≤ 0.25
WQYG	≤ 0.25
SQFY	≤ 0.25
MQAA	≤ 0.25

Variant	enrichment ratio
VRQW	≤ 0.25
QLEG	≤ 0.25
LCGM	≤ 0.25
GNGL	6.28
KRYP	≤ 0.25
KVGY	≤ 0.25
HQVV	≤ 0.25
DGCY	≤ 0.25
GCVQ	≤ 0.25
VDIS	≤ 0.25
YPVH	≤ 0.25
GTYH	≤ 0.25
RLMM	≤ 0.25
IAYE	≤ 0.25
GGTP	≤ 0.25
AKIE	≤ 0.25
RQFI	≤ 0.25
HVRV	≤ 0.25
GDAY	≤ 0.25
STQS	≤ 0.25
YKLE	3.65
NKQQ	≤ 0.25
MSHI	2.06
IYRC	≤ 0.25

Variant	enrichment ratio
IGQC	≤ 0.25
EREL	≤ 0.25
QQSQ	≤ 0.25
IDSQ	≤ 0.25
PQAP	≤ 0.25
GHCK	≤ 0.25
YPYF	≤ 0.25
HKKR	≤ 0.25
LQEN	≤ 0.25
YENG	≤ 0.25
FDKN	≤ 0.25
AEVA	≤ 0.25
PWFT	≤ 0.25
VKGK	≤ 0.25
VASD	≤ 0.25
SKQP	≤ 0.25
ERYH	≤ 0.25
FIFV	≤ 0.25
HSLW	≤ 0.25
WSNQ	≤ 0.25
RSTS	≤ 0.25
GGLW	≤ 0.25
ESLH	≤ 0.25
ECWL	≤ 0.25

Variant	enrichment ratio
EHLF	≤ 0.25
MLGM	3.59
SGIS	6.52
KFPT	≤ 0.25
GPHI	≤ 0.25
SKDI	≤ 0.25
RQIK	≤ 0.25
KNHP	≤ 0.25
LERW	≤ 0.25
QEQG	≤ 0.25
MNQC	≤ 0.25
SKNP	≤ 0.25
LDLI	≤ 0.25
LEKI	≤ 0.25
EKRG	≤ 0.25
DNHE	≤ 0.25
RPGK	≤ 0.25
KYDH	1.19
NHNP	≤ 0.25
STMN	2.85
ASWM	≤ 0.25
YPLG	≤ 0.25
YKWY	≤ 0.25
WDGN	≤ 0.25

Variant	enrichment ratio
NHWH	≤ 0.25
WMSN	≤ 0.25
VSFR	≤ 0.25
GCLT	6.49
FLSR	≤ 0.25
HCMH	≤ 0.25
IKCE	≤ 0.25
FEMP	≤ 0.25
MGLS	5.14
MNYN	≤ 0.25
IRGL	≤ 0.25
SPSW	≤ 0.25
MGIM	10.8
FYDK	≤ 0.25
QYMC	≤ 0.25
ENVA	≤ 0.25
DCCH	≤ 0.25
MFKR	≤ 0.25
YFLS	≤ 0.25
IHCP	≤ 0.25
LYWD	≤ 0.25
TRRH	≤ 0.25
RYQN	≤ 0.25
DDQN	≤ 0.25

Variant	enrichment ratio
EIKT	≤ 0.25
VQTH	≤ 0.25
WMDL	≤ 0.25
AANL	≤ 0.25
GDQE	≤ 0.25
GEGV	0.932
SLSR	≤ 0.25
VCNC	≤ 0.25
KRSL	≤ 0.25
MENA	≤ 0.25
EFPN	≤ 0.25
RATS	≤ 0.25
TWQN	≤ 0.25
WGWY	≤ 0.25
YDWF	≤ 0.25
PQVE	≤ 0.25
LNPR	≤ 0.25
MIFV	1.18
MALR	≤ 0.25
LRAG	≤ 0.25
VPDE	≤ 0.25
ENTP	≤ 0.25
LPDW	≤ 0.25
YMRC	≤ 0.25

Variant	enrichment ratio
KDKF	≤ 0.25
MLPH	≤ 0.25
TKKT	≤ 0.25
AIPL	5.13
WQVI	≤ 0.25
PVPY	≤ 0.25
YSVV	3.37
RQAC	≤ 0.25
TGEY	≤ 0.25
GYDY	≤ 0.25
FPEY	≤ 0.25
RFWV	≤ 0.25
TTIE	≤ 0.25
HGKE	≤ 0.25
AVWP	≤ 0.25
YSTI	4.58
ESKM	≤ 0.25
IRTW	≤ 0.25
SADD	≤ 0.25
IILN	≤ 0.25
HVSA	≤ 0.25
PMML	≤ 0.25
FPHC	≤ 0.25
RMCS	≤ 0.25

Variant	enrichment ratio
YEFF	≤ 0.25
VCVS	≤ 0.25
SPWI	≤ 0.25
KGGY	≤ 0.25
SIHC	≤ 0.25
SGAR	≤ 0.25
EVSD	≤ 0.25
KKST	≤ 0.25
HKHQ	≤ 0.25
TGFG	≤ 0.25
FKEM	≤ 0.25
WMGA	≤ 0.25
GFIR	≤ 0.25
QHCR	≤ 0.25
EWTY	≤ 0.25
FNDF	≤ 0.25
WLCY	≤ 0.25
NHMF	≤ 0.25
KQVD	≤ 0.25
VRPT	≤ 0.25
FYSL	≤ 0.25
MDYE	≤ 0.25
PHVQ	≤ 0.25
GAFK	≤ 0.25

Variant	enrichment ratio
HIQH	≤ 0.25
GRTT	≤ 0.25
KRKQ	≤ 0.25
HGVG	≤ 0.25
ALYG	≤ 0.25
FWPI	≤ 0.25
QTWI	3.53
DPGK	≤ 0.25
HNDA	≤ 0.25
DLNH	≤ 0.25
PKLV	≤ 0.25
TILP	≤ 0.25
NYGI	≤ 0.25
YEST	12.8
VPMR	≤ 0.25
VSKY	≤ 0.25
HKHF	≤ 0.25
VAQR	≤ 0.25
WVIS	≤ 0.25
SMVI	5.88
KATI	≤ 0.25
VIMY	≤ 0.25
DEDR	≤ 0.25
MMKI	≤ 0.25

Variant	enrichment ratio
KHCD	≤ 0.25
HEPH	≤ 0.25
TRPH	≤ 0.25
FLVH	≤ 0.25
FCLE	4.04
TIKL	≤ 0.25
MDIS	≤ 0.25
QTRR	≤ 0.25
ICWI	≤ 0.25
IMEE	≤ 0.25
PQAT	≤ 0.25
FDIL	≤ 0.25
LLTP	≤ 0.25
STLK	10.3
TVEY	0.327
VTMY	≤ 0.25
PKMV	≤ 0.25
MYYN	≤ 0.25
